Laboratory results taken from PubChem BioAssay AID686979 (National Center for Advancing Translational Sciences (NCATS), 2013).
Values joined by “and” are separate entries in the source; they are usually repeats but may differ in a detail not shown here. Equal entries are not always repeated. The campaign covered roughly 420,000 compounds. About 50,000 (12%) were called active. Inconclusive means that the source gave no clear call. Such entries were picked first, then a sample of the others. The call rests on the fitted dose curve; in most records, active means well fitted inhibition curve with a large enough effect; inconclusive means small, poorly fitted or top-dose-only effect; inactive means flat fitted curve, though single readings scatter. Potencies of inconclusive entries are left out as doubtful fits. The source holds several records for some structures; these can differ, active in one and inactive in another.

Experiment: qHTS for Inhibitors of human tyrosyl-DNA phosphodiesterase 1 (TDP1): qHTS in cells in presence of CPT; further: nearly all actives have a fitted effect of over 55% in size
Conditions: chicken DT40 Tdp1-/-;hTDP1 cells + 20 nM CPT, ATP luminescence, 48 h; activity change, negative = growth inhibition: at 46.2 µM (top of the series) unless noted
Outline: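 Chicken DT40 Tdp1-/- cells complemented with human TDP1, 400 cells/well, exposed to compounds plus 20 nM camptothecin for at least 48 h at 37 C; viability read as ATP content by CellTiter-Glo luminescence.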
On the % scale 0 is the no-effect control and ±100 the full control effect; potency means the concentration at half of the fitted maximal effect; tags describe the fitted curve by direction and shape.

Q: Which Potency does the source give for CC(=O)N1CCc2cc(S(=O)(=O)NC(C)c3ccccc3)ccc21 (centres undefined) here?
A: Its Potency is inconclusive [inhibitor, single point].

Q: Which Potency does the source give for Cc1nc(N2CCN(c3ccccn3)CC2)c2c(C)c(C(=O)Nc3ccc(Cl)cc3)sc2n1 here?
A: The Potency was inconclusive [inhibitor, single point].

Q: For C(=C\c1ccccc1)/CN1CCN(C(c2cc3ccccc3o2)c2nnnn2-c2ccc3c(c2)OCCO3)CC1 (centres undefined), which Potency is on record?
A: The Potency was active: 13 µM.

Q: Which Potency does the source give for CC1CCCN(c2ncnc3c2cnn3-c2ccc(F)cc2)C1 (centres undefined) here?
A: The Potency was inconclusive [inhibitor, single point].

Q: Which Potency does the source give for Cc1cc(C)c2nc(NC(=O)c3ccc4c(=O)n5c(nc4c3)CCCCC5)sc2c1 here?
A: Its Potency is inconclusive [inhibitor, partial curve].

Q: For CC(=O)Nc1cccc(NC(=O)CSc2ncc(-c3ccc(Cl)cc3)n2Cc2ccco2)c1, which Potency is on record?
A: The Potency was active: 20.6 µM.

Q: For COc1ccc(C2CC(=O)N(Cc3ccccc3C)c3c2c(C)nn3-c2nc(C)cc(C)n2)c(OC)c1 (centres undefined), which Potency is on record?
A: The Potency was inconclusive [inhibitor, single point].

Q: With O=C(NCCc1csc(-c2ccccc2)n1)c1ccccc1F as the compound, how does the Potency read?
A: Its Potency is inconclusive [inhibitor, single point].

Q: Which Potency does the source give for Cc1ccc(Sc2ncccc2C(=O)O)cc1 here?
A: The Potency was “inactive”.

Q: With C[C@]12C(=O)N(c3cccc(F)c3)C(=O)N1[C@@H]1c3ccccc3OC[C@@H]1[C@H]2c1ccccc1 as the compound, how does the Potency read?
A: The Potency was active: 11.6 µM.

Q: For COc1cc(C(=O)OC2CCOC2=O)cc(Cl)c1OC (centres undefined), which Potency is on record?
A: The Potency was “inactive”.

Q: Which Potency does the source give for COc1ccc2c(CC(=O)NNC(=O)c3ccccc3F)coc2c1 here?
A: The Potency was “inactive”.

Q: With Cc1ccccc1OCC(O)Cn1c(=N)n(Cc2ccccc2)c2ccccc21 (centres undefined) as the compound, how does the Potency read?
A: Its Potency is active: 4.11 µM.

Q: Which Potency does the source give for Cc1nn(-c2nc3ccccc3[nH]2)c(=O)c2ccccc12 here?
A: The Potency was active: 1.84 µM.

Q: Which Potency does the source give for CC(C)(C)c1ccc(-c2nc(SCCOc3ccc(Cl)cc3)n3[nH]c(=O)cc3n2)cc1 here?
A: The Potency was active: 18.4 µM.

Q: With COC(=O)C1=C(C)NC(C)=C(C(=O)OC)C1c1ccc(-c2cccc([N+](=O)[O-])c2)o1 as the compound, how does the Potency read?
A: Its Potency is inconclusive [inhibitor, single point].

Q: For O=C(c1cccc(-c2nnc(-c3ccccc3)o2)c1)N1CCCCC1, which Potency is on record?
A: The Potency was inconclusive [inhibitor, single point].

Q: With Fc1ccc(CCn2c(Cn3c(-c4cnccn4)nc4ccccc43)nc3ccccc32)cc1 as the compound, how does the Potency read?
A: Its Potency is “inactive”.

Q: For Cc1ccccc1-n1c(SCC(=O)Nc2ccc(Cl)cc2Cl)nc(O)cc1=O, which Potency is on record?
A: The Potency was “inactive”.

Q: For NC(=O)[C@H]1CC2(CC(c3cccc(NC(=O)CC(c4ccccc4)c4ccccc4)c3)=NO2)CN1C(=O)C(c1ccccc1)c1ccccc1 (some centres undefined), which Potency is on record?
A: The Potency was active: 18.4 µM.

Q: For CCCCC1=CC2=C(c3ccco3)C(=O)C(C)(OC(=O)c3ccc(OC)cc3)C(=O)C2=CN1CCc1ccccn1 (centres undefined), which Potency is on record?
A: The Potency was active: 5.8 µM.

Q: With CCOC(=O)N1CCN(c2nnc(-c3ccc(C)cc3)c3ccccc23)CC1 as the compound, how does the Potency read?
A: Its Potency is inconclusive [inhibitor, single point].

Q: For O=C1C2C(c3ccccc3)(C(=O)N1c1ccc(Cl)cc1)C2(c1ccccc1)c1ccccc1 (centres undefined), which Potency is on record?
A: The Potency was inconclusive [inhibitor, single point].

Q: With COc1ccc(-n2nc(C(=O)NCC(=O)NCCCN3CCOCC3)c3ccccc3c2=O)cc1 as the compound, how does the Potency read?
A: Its Potency is “inactive”.

Q: For COc1ccc(-c2nc3c4ccccc4n(CC(=O)Nc4ccc(C(C)C)cc4)c(=O)n3n2)cc1, which Potency is on record?
A: The Potency was inconclusive [inhibitor, single point].

Q: With COc1ccc(NC(=O)CSC2=Nc3ccccc3C3=NC(CC(=O)NCc4ccccc4OC)C(=O)N23)cc1Cl (centres undefined) as the compound, how does the Potency read?
A: The Potency was inconclusive [inhibitor, single point].

Q: Which Potency does the source give for CC[N+](CC)(CC#Cc1ccccc1)CC(=O)c1ccc(Cl)cc1 here?
A: The Potency was active: 5.8 µM.

Q: Which Potency does the source give for Cc1ccc(S(=O)(=O)N2CCOCC2)cc1NC(=O)CN1CCC(Cc2ccccc2)CC1 here?
A: The Potency was inconclusive [inhibitor, single point].

Q: With CS(=O)(=O)N1CCN(c2ccccc2NC(=O)c2ccc(-c3ccc(Cl)cc3Cl)o2)CC1 as the compound, how does the Potency read?
A: Its Potency is inconclusive [inhibitor, single point].

Q: For Cc1ccc(S(=O)(=O)N2CCc3cc(C(=O)N(C)Cc4ccccc4)ccc32)cc1, which Potency is on record?
A: Its Potency is active: 14.6 µM.

Q: Which Potency does the source give for CCc1sc(Nc2cccc(C)c2)nc1-c1cc2cccc(OC)c2oc1=O here?
A: The Potency was inconclusive [inhibitor, single point].

Q: For COc1ccc(CCN(C(=O)c2snc(C(N)=O)c2N)C(C(=O)NCC2CCCO2)c2ccc(F)cc2)cc1OC (centres undefined), which Potency is on record?
A: The Potency was inconclusive [inhibitor, partial curve].

Q: For OCCOCCN1CCN(C2=Nc3ccccc3Sc3ccccc32)CC1, which Potency is on record?
A: Its Potency is active: 23.7 µM.

Q: With CC(C)(C)c1ccc(OCCNCc2ccccc2)cc1 as the compound, how does the Potency read?
A: The Potency was inconclusive [inhibitor, single point].

Q: With Cc1cccc(N(C)S(=O)(=O)c2ccc(-c3cc(C)no3)s2)c1 as the compound, how does the Potency read?
A: The Potency was active: 517 nM and active: 820 nM.

Q: With O=C(COC(=O)/C=C/c1ccc(S(=O)(=O)N2CCOCC2)cc1)NCc1ccc2c(c1)OCO2 as the compound, how does the activity change, negative = growth inhibition read?
A: The activity change, negative = growth inhibition was inconclusive: -34.8% [inhibitor].

Q: Which Potency does the source give for COC(=O)c1cc(S(=O)(=O)Nc2cc(OC)cc(OC)c2)c[nH]1 here?
A: Its Potency is inconclusive [inhibitor, single point].

Q: For COc1cc2cc(/C=C/C(=O)c3ccco3)c(Cl)nc2cc1OC, which Potency is on record?
A: Its Potency is active: 4.11 µM.

Q: For COCC(C)n1c(-c2ccc3c(c2)NC(=O)CO3)csc1=Nc1ccc(OC(F)F)cc1 (centres undefined), which Potency is on record?
A: The Potency was active: 5.17 µM.

Q: With Cc1ccc2c(C)c(C(=O)N(Cc3ccc(F)cc3)C3CCS(=O)(=O)C3)oc2c1 (centres undefined) as the compound, how does the Potency read?
A: Its Potency is inconclusive [inhibitor, single point].

Q: Which Potency does the source give for CCNc1oc(COc2cccc(C)c2)nc1C#N here?
A: The Potency was inconclusive [inhibitor, single point].

Q: Which Potency does the source give for O=C1c2ccccc2C(=O)N1CC(O)CNc1ccc(Br)cc1 (centres undefined) here?
A: Its Potency is “inactive”.

Q: For O=C(CCC(=O)Nc1cccc([N+](=O)[O-])c1)NCc1ccccc1, which Potency is on record?
A: The Potency was “inactive”.

Q: With Cc1c(CCOC(=O)c2ccccc2)sc[n+]1CC(=O)c1ccc(Br)cc1 as the compound, how does the Potency read?
A: The Potency was inconclusive [inhibitor, single point].
